From paper PMC11905140
Results are given in words; binding and its absence hold for the method and conditions named. Binding seen in cells or lysates may run through a third protein. One block for each binder: values may come before it.

What was measured:
[1] = biological target: Flag-tagged ZNF217 (zinc finger protein 217) (human) (UniProt O75362); experiment: co-IP; exogenous co-IP: anti-Flag IP from RIPA lysates of KOPN-8 and SUP-B15 cells with ectopic Flag-tagged ZNF217 (or ZNF217 1-272) or an empty vector; Protein A/G magnetic beads, overnight at 4 °C; wash 10 mM Tris-HCl pH 7.5, 1 mM EDTA, 150 mM NaCl, 1% Triton X-100, 0.2 mM sodium orthovanadate; Western blot
[2] = biological target: ZNF217 (zinc finger protein 217), endogenous (human (endogenous in KOPN-8 and SUP-B15)), O75362; experiment: co-IP; endogenous co-IP: anti-ZNF217 IP (IgG control) from RIPA lysates of KOPN-8 and SUP-B15 cells; Protein A/G magnetic beads, overnight at 4 °C; wash 10 mM Tris-HCl pH 7.5, 1 mM EDTA, 150 mM NaCl, 1% Triton X-100, 0.2 mM sodium orthovanadate; Western blot; details: remark: other sources report otherwise
[3] = biological target: Flag-tagged ZNF217 (zinc finger protein 217) (human), O75362; experiment: co-IP; exogenous co-IP: anti-Flag IP from RIPA lysates of KOPN-8 and SUP-B15 cells with ectopic Flag-tagged ZNF217 (or ZNF217 1-272) or an empty vector; Protein A/G magnetic beads, overnight at 4 °C; wash 10 mM Tris-HCl pH 7.5, 1 mM EDTA, 150 mM NaCl, 1% Triton X-100, 0.2 mM sodium orthovanadate; Western blot; details: remark: other sources report otherwise
[4] = biological target: METTL3 (human (endogenous in KOPN-8 and SUP-B15)), Q86U44; experiment: co-IP; reciprocal co-IP: IP of the partner (anti-LSD1 is the only partner antibody listed for co-IP) from RIPA lysates of B-ALL cells (KOPN-8 and SUP-B15 in Figure 4C; KOPN-8 in Figure S4D); Protein A/G magnetic beads, overnight at 4 °C; Western blot; details: remark: other sources report otherwise

binding [1]: no binding
B1: METTL14 (protein, UniProt Q9HCE5 1-456)
chain: MDSRLQEIRERQKLRRQLLAQQLGAESADSIGAVLNSKDEQREIAETRETCRASYDTSAPNAKRKYLDEGETDEDKMEEYKDELEMQQDEENLPYEEEIYKDSSTFLKGTQSLNPHNDYCQHFVDTGHRPQNFIRDVGLADRFEEYPKLRELIRLKDELIAKSNTPPMYLQADIEAFDIRELTPKFDVILLEPPLEEYYRETGITANEKCWTWDDIMKLEIDEIAAPRSFIFLWCGSGEGLDLGRVCLRKWGYRRCEDICWIKTNKNNPGKTKTLDPKAVFQRTKEHCLMGIKGTVKRSTDGDFIHANVDIDLIITEEPEIGNIEKPVEIFHIIEHFCLGRRRLHLFGRDSTIRPGWLTVGPTLTNSNYNAETYASYFSAPNSYLTGCTEEIERLRPKSPPPKSKSDRGGGAPRGGGRGGTSAGRGRERNRSNFRGERGGFRGGRGGAHRGGFPPR

binding [2]: no binding
binding [3]: no binding
B2: YTHDF2, Q9Y5A9 1-579 (protein)
chain: MSASSLLEQRPKGQGNKVQNGSVHQKDGLNDDDFEPYLSPQARPNNAYTAMSDSYLPSYYSPSIGFSYSLGEAAWSTGGDTAMPYLTSYGQLSNGEPHFLPDAMFGQPGALGSTPFLGQHGFNFFPSGIDFSAWGNNSSQGQSTQSSGYSSNYAYAPSSLGGAMIDGQSAFANETLNKAPGMNTIDQGMAALKLGSTEVASNVPKVVGSAVGSGSITSNIVASNSLPPATIAPPKPASWADIASKPAKQQPKLKTKNGIAGSSLPPPPIKHNMDIGTWDNKGPVAKAPSQALVQNIGQPTQGSPQPVGQQANNSPPVAQASVGQQTQPLPPPPPQPAQLSVQQQAAQPTRWVAPRNRGSGFGHNGVDGNGVGQSQAGSGSTPSEPHPVLEKLRSINNYNPKDFDWNLKHGRVFIIKSYSEDDIHRSIKYNIWCSTEHGNKRLDAAYRSMNGKGPVYLLFSVNGSGHFCGVAEMKSAVDYNTCAGVWSQDKWKGRFDVRWIFVKDVPNSQLRHIRLENNENKPVTNSRDTQEVPLEKAKQVLKIIASYKHTTSIFDDFSHYEKRQEEEESVKKERQGRGK

binding [4]: no binding
B3: ZNF217 (zinc finger protein 217), endogenous, O75362 1-1048 (protein)
chain: MQSKVTGNMPTQSLLMYMDGPEVIGSSLGSPMEMEDALSMKGTAVVPFRATQEKNVIQIEGYMPLDCMFCSQTFTHSEDLNKHVLMQHRPTLCEPAVLRVEAEYLSPLDKSQVRTEPPKEKNCKENEFSCEVCGQTFRVAFDVEIHMRTHKDSFTYGCNMCGRRFKEPWFLKNHMRTHNGKSGARSKLQQGLESSPATINEVVQVHAAESISSPYKICMVCGFLFPNKESLIEHRKVHTKKTAFGTSSAQTDSPQGGMPSSREDFLQLFNLRPKSHPETGKKPVRCIPQLDPFTTFQAWQLATKGKVAICQEVKESGQEGSTDNDDSSSEKELGETNKGSCAGLSQEKEKCKHSHGEAPSVDADPKLPSSKEKPTHCSECGKAFRTYHQLVLHSRVHKKDRRAGAESPTMSVDGRQPGTCSPDLAAPLDENGAVDRGEGGSEDGSEDGLPEGIHLDKNDDGGKIKHLTSSRECSYCGKFFRSNYYLNIHLRTHTGEKPYKCEFCEYAAAQKTSLRYHLERHHKEKQTDVAAEVKNDGKNQDTEDALLTADSAQTKNLKRFFDGAKDVTGSPPAKQLKEMPSVFQNVLGSAVLSPAHKDTQDFHKNAADDSADKVNKNPTPAYLDLLKKRSAVETQANNLICRTKADVTPPPDGSTTHNLEVSPKEKQTETAADCRYRPSVDCHEKPLNLSVGALHNCPAISLSKSLIPSITCPFCTFKTFYPEVLMMHQRLEHKYNPDVHKNCRNKSLLRSRRTGCPPALLGKDVPPLSSFCKPKPKSAFPAQSKSLPSAKGKQSPPGPGKAPLTSGIDSSTLAPSNLKSHRPQQNVGVQGAATRQQQSEMFPKTSVSPAPDKTKRPETKLKPLPVAPSQPTLGSSNINGSIDYPAKNDSPWAPPGRDYFCNRSASNTAAEFGEPLPKRLKSSVVALDVDQPGANYRRGYDLPKYHMVRGITSLLPQDCVYPSQALPPKPRFLSSSEVDSPNVLTVQKPYGGSGPLYTCVPAGSPASSSTLEGKRPVSYQHLSNSMAQKRNYENFIGNAHYRPNDKKT

binding [1]: no binding
B4: METTL16 (protein, UniProt Q86W50 1-562)
chain: MALSKSMHARNRYKDKPPDFAYLASKYPDFKQHVQINLNGRVSLNFKDPEAVRALTCTLLREDFGLSIDIPLERLIPTVPLRLNYIHWVEDLIGHQDSDKSTLRRGIDIGTGASCIYPLLGATLNGWYFLATEVDDMCFNYAKKNVEQNNLSDLIKVVKVPQKTLLMDALKEESEIIYDFCMCNPPFFANQLEAKGVNSRNPRRPPPSSVNTGGITEIMAEGGELEFVKRIIHDSLQLKKRLRWYSCMLGKKCSLAPLKEELRIQGVPKVTYTEFCQGRTMRWALAWSFYDDVTVPSPPSKRRKLEKPRKPITFVVLASVMKELSLKASPLRSETAEGIVVVTTWIEKILTDLKVQHKRVPCGKEEVSLFLTAIENSWIHLRRKKRERVRQLREVPRAPEDVIQALEEKKPTPKESGNSQELARGPQERTPCGPALREGEAAAVEGPCPSQESLSQEENPEPTEDERSEEKGGVEVLESCQGSSNGAQDQEASEQFGSPVAERGKRLPGVAGQYLFKCLINVKKEVDDALVEMHWVEGQNRDLMNQLCTYIRNQIFRLVAVN
